# Laboratory results published in PubChem BioAssay AID720708 (National Center for Advancing Translational Sciences (NCATS), 2013).
# The campaign covered roughly 360,000 compounds. About 660 (0.18%) were called active. Inconclusive means that the source gave no clear call. Such entries were picked first, then a sample of the others. Calls come from the whole dose curve; as a rule, active = well fitted inhibition curve with a large enough effect; inconclusive = small, poorly fitted or top-dose-only effect; inactive = no such curve, though single readings can be large or run the other way. No potency is given beside an inconclusive call; the fits are too rough.
# Molecular target: Rap guanine nucleotide exchange factor 4 (Homo sapiens) (UniProt Q8WZA2)
# Test: qHTS for Antagonist of cAMP-regulated guanine nucleotide exchange factor 2 (EPAC2): primary screen; note: nearly all actives have a fitted effect of over 45% in size
# Conditions: EPAC2 GEF exchange of Rap1B-BODIPY-GDP, fluorescence; activity, negative = inhibition: at 114 µM (top of the series) unless noted
# % is set by controls: 0 for no effect and ±100 for the full control effect; potency is the fitted concentration of half-maximal effect; tags give direction and shape of the fitted curve.
# UniProt Q8WZA2, sequence (Q8WZA2 whole entry, looked up): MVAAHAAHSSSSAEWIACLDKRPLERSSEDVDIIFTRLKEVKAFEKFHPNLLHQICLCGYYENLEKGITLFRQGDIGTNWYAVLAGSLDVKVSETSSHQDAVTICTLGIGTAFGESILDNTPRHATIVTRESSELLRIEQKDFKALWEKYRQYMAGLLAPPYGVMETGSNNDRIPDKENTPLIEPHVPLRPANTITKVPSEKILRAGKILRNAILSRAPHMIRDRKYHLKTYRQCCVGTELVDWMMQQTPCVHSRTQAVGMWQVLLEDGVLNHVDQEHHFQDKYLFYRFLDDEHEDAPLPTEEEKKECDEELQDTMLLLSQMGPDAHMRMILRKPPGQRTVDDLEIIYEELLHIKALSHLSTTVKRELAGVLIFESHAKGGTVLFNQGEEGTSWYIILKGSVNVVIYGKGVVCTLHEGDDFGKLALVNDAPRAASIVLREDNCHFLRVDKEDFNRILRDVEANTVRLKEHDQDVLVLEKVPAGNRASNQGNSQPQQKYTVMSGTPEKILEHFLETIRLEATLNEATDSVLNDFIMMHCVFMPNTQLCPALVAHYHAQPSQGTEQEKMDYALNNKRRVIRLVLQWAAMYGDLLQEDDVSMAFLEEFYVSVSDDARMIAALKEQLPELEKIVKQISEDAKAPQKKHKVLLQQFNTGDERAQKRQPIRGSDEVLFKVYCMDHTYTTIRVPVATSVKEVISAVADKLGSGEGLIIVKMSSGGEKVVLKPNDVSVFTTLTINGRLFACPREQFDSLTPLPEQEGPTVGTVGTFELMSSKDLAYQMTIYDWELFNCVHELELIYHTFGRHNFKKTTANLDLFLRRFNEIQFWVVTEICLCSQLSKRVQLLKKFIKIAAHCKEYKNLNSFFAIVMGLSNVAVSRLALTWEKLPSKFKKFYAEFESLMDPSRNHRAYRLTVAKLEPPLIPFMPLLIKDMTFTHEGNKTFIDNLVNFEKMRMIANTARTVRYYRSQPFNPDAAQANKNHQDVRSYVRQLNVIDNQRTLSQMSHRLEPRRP
SMILES,Potency,"activity, negative = inhibition"
Cc1cc(C)nc(SCC(=O)c2ccc(F)cc2F)n1,"inconclusive [inhibitor, partial curve]",–
Cc1c(Cl)cccc1Nc1n[nH]c(=S)s1,inactive,–
Cn1cc(C(CO)Cc2ccccc2)c2ccccc21 (stereo not drawn),"inconclusive [inhibitor, partial curve]",–
O=C(COc1ccc(F)cc1)N1c2ccccc2CCc2ccccc21,"inconclusive [inhibitor, partial curve]",–
O=C(c1ccccc1)N1N=C(c2ccccc2)CC1c1ccccc1O (stereo not drawn),"inconclusive [inhibitor, partial curve]",–
C[C@@H]1CN([C@@H](C)CO)C(=O)CCCn2nncc2CO[C@@H]1CN(C)C(=O)c1ccc(N2CCN(C)CC2)cc1,"inconclusive [inhibitor, full curve]",–
Cn1c(=O)cc(Nc2ccccc2)[nH]c1=O,inactive,–
O=C(CCc1ccccc1Cl)Nc1ccc(S(=O)(=O)Nc2nccs2)cc1,"inconclusive [inhibitor, single point]",–
O=C(O)C1CC(=O)N(c2ccc(OCc3c(F)cccc3Cl)cc2)C1 (stereo not drawn),"inconclusive [inhibitor, single point]",–
COc1ccc(Cc2c(-c3ccc(C)cc3)nc3ccc(Cl)cn23)c(C)c1,inactive,–
Cc1cc(Cl)c2oc(C(=O)N(C)CCc3cnn(C)c3)c(C)c2c1,"inconclusive [inhibitor, partial curve]",–
CSc1nsc(SCC(=O)Nc2ccc(OC(C)=O)cc2)n1,"inconclusive [inhibitor, partial curve]",–
CC(=O)Nc1ccc(S(=O)(=O)N(Cc2ccccc2)c2ccccn2)cc1,"inconclusive [inhibitor, partial curve]",–
COc1ccc2c(/C=C/c3cc[n+](C)cc3)c[nH]c2c1,inactive,–
CC(=O)NC(c1cccc([N+](=O)[O-])c1)c1ccc2cccnc2c1O (stereo not drawn),"inconclusive [inhibitor, partial curve]",–
Cc1nc(NC(=O)c2ccccc2)sc1-c1cc(C(=O)N2CCOCC2)nn1Cc1ccccc1,inactive,–
CCOC(=O)c1ccccc1NC(=O)COC(=O)C(CC)Oc1ccccc1 (stereo not drawn),"inconclusive [inhibitor, partial curve]",–
CCOC(=O)C1=CCN(S(=O)(=O)c2ccccc2F)C1c1ccc(Cl)cc1 (stereo not drawn),"inconclusive [inhibitor, full curve]",–
O=C1NC(=O)/C(=C/c2cc3c(cc2Br)OCO3)S1,"inconclusive [inhibitor, partial curve]",–
CCCCCCCCC/C(=N\O)c1ccccn1,"inconclusive [inhibitor, partial curve]",–
Cc1ccc(S(=O)(=O)N2[C@@H](c3ccc(Br)cc3)C(C(=O)O)=CC[C@H]2c2ccc(Cl)c(Cl)c2)cc1,"inconclusive [inhibitor, partial curve]",–
Fc1ccc(N=C2NN=C(c3cc(F)ccc3F)CS2)cc1,inactive,–
CCOC(=O)C1=C(N)c2ccccc2CC1C(C)C (stereo not drawn),"inconclusive [inhibitor, single point]",–

SMILES,Potency,"activity, negative = inhibition"
CSc1nnc(Cn2c(=O)sc3ccccc32)n1CCc1ccccc1,"inconclusive [inhibitor, partial curve]",–
CN1c2ccccc2C(C)(C)C12C=Cc1cc(O)ccc1O2 (stereo not drawn),inactive,–
CC(=O)Nc1ccc(CN2C(=O)C(Cc3ccccc3)ON=C2c2cccc(F)c2)cc1 (stereo not drawn),inactive,–
CN(C)CCCn1c(SCC(=O)N2c3ccccc3Sc3ccccc32)nc2ccccc2c1=O,"inconclusive [inhibitor, partial curve]",–
Cc1nc2cc(-c3ccc(Br)cc3)[nH]n2c(=O)c1Cl,inactive,–
Fc1ccc(Oc2nc(-c3ccccn3)nc3ccccc23)cc1,"inconclusive [inhibitor, partial curve, poor fit]",–
COc1cccc(C(O)c2nc(-c3cccc(F)c3)cs2)c1 (stereo not drawn),"inconclusive [inhibitor, partial curve]",–
CCOc1ccc(N(C(=O)CNC(=O)c2ccco2)C(C(=O)NC2CCCC2)c2cccnc2)cc1 (stereo not drawn),"inconclusive [inhibitor, partial curve, poor fit]",–
COc1cccc(CNc2ccc([N+](=O)[O-])cc2Cl)c1O,"inconclusive [inhibitor, partial curve]",–
CC(CCN1CCC(n2nccc2NC(=O)c2ccccc2Cl)CC1)c1ccccc1 (stereo not drawn),inactive,–
O=C(NCc1ccc(OC(F)(F)F)cc1)C1CC(c2ccccc2C(F)(F)F)=NO1 (stereo not drawn),"inconclusive [inhibitor, full curve, poor fit]",–
COC(=O)c1ccc2nc(-c3ccccc3)c(Cc3cccc(F)c3)n2c1,"inconclusive [inhibitor, partial curve]",–
CC(=O)OCc1c(-c2ccccc2)c2cc([N+](=O)[O-])ccc2n1C,"inconclusive [inhibitor, partial curve]",–
COc1ccc(CNS(=O)(=O)c2ccc(S(=O)(=O)NC3CC3)cc2)cc1,–,inconclusive: -12.2% [inhibitor]
CCCc1c(-c2ccccc2Br)ncn1Cc1ccccc1OC,"inconclusive [inhibitor, partial curve]",–
Cc1cccc2nc(-c3ccco3)c(Nc3ccccc3)n12,"inconclusive [inhibitor, full curve, poor fit]",–
Nc1c2c(nc3ccn(Cc4ccccc4)c(=O)c13)CCC2,inactive,–
Cc1ccccc1OCCn1cnc2c(N)ncnc21,"inconclusive [inhibitor, single point]",–
O=C(CCN1C(=O)/C(=C/c2ccc(Cl)cc2)SC1=S)Nc1cccc(C(=O)O)c1,"inconclusive [inhibitor, single point]",–
COc1ccc(C2=CC(=O)C[C@H](COCc3ccccc3)N(C(=O)OC(C)(C)C)O2)cc1,"inconclusive [inhibitor, partial curve]",–
COc1ccc(CN2CCCC(C(=O)N3CCCC3)C2)c(OC)c1OC (stereo not drawn),"inconclusive [inhibitor, single point]",–
O=S1(=O)CCN2C(Cc3ccc(SC(F)F)cc3)=CSC2=N1,"inconclusive [inhibitor, partial curve]",–
Nc1nc(C(c2ccccc2)c2ccccc2)cs1,"inconclusive [inhibitor, partial curve]",–

SMILES,Potency,"activity, negative = inhibition"
O=[N+]([O-])c1cc([N+](=O)[O-])c2nonc2c1Nc1ccccc1O,"inconclusive [inhibitor, partial curve]",–
CC(C)=CCc1c2c(c3occ(-c4ccc(O)cc4)c(=O)c3c1O)C=CC(C)(C)O2,"inconclusive [inhibitor, full curve, poor fit]",–
CCCCCCCCOc1ccc(C(=O)O)cc1,"inconclusive [inhibitor, partial curve]",–
CCC(=O)N1N=C(c2cccs2)CC1c1ccco1 (stereo not drawn),"inconclusive [inhibitor, partial curve]",–
CC(C)OC(=O)c1cc(Cl)c(=O)n(Cc2ccc(Cl)cc2Cl)c1,"inconclusive [inhibitor, full curve]",–
C=CCOC(=O)C1=C(C)NC(SCC(=O)N(CC)CC)=C(C#N)C1c1ccco1 (stereo not drawn),"inconclusive [inhibitor, single point]",–
O=c1c2cn[nH]c2[nH]c(=S)n1-c1ccccc1,inactive,–
CCC/C=C/c1ccc(CN2C(CC(C)C)C(=O)N(Cc3cn(CCC4OCCCO4)nn3)CCS2(=O)=O)cc1 (stereo not drawn),"inconclusive [inhibitor, partial curve]",–
CCN1CCN(c2nc3c(c(=O)[nH]c(=O)n3C)n2Cc2ccccc2F)CC1,"inconclusive [inhibitor, single point]",–
COc1ccc(CCn2c(=N)c(C(=O)NC3CCCCC3)cc3c(=O)n4ccccc4nc32)cc1,"inconclusive [inhibitor, single point]",–
COCOCCn1cc(CN2CCS(=O)(=O)N(Cc3ccc(-c4ccc(Cl)nc4)cc3)C(CC(C)C)C2=O)nn1 (stereo not drawn),"inconclusive [inhibitor, full curve]",–
O=C(c1cc(-c2cccc(Cl)c2)on1)N1CCN(c2ccccc2)CC1,"inconclusive [inhibitor, single point]",–
O=C(c1cc2cc(Cl)ccc2o1)N1CCCC1,"inconclusive [inhibitor, partial curve]",–
O=C(Oc1ccc(OC(=O)c2ccco2)c(S(=O)(=O)c2ccc(Br)cc2)c1)c1ccco1,inactive,–
Cc1ccc(S(=O)(=O)c2nc(Nc3ccccc3)sc2Cl)cc1,inactive,–
Cc1ccccc1-c1cc2nc(NCc3ccccc3F)n(C)c(=O)c2s1,inactive,–
CCC(CCC(=O)Nc1cccc(C(=O)O)c1)C(=O)O (stereo not drawn),"inconclusive [inhibitor, partial curve]",–
COc1ccc(S(=O)(=O)NC2CCCC2)cc1Cl,"inconclusive [inhibitor, partial curve]",–
Cc1cc(C)c(S(=O)(=O)c2ccccc2C)c(OCCN(C)C)n1,inactive,–
CCC(C)[C@H]1COCCS(=O)(=O)N1Cc1ccc(Br)cc1 (stereo partly drawn),"inconclusive [inhibitor, single point]",–
COc1ccc(S(=O)(=O)N2CCC(n3cnc4ccccc43)CC2)cc1,inactive,–
COCC(=O)N[C@H]1CC[C@@H](CC(=O)NCc2ccccc2OC)O[C@@H]1CO,inactive,–
